Measured values: PMC4352082
Results are given in words; binding and its absence hold for the method and conditions named. Binding seen in cells or lysates may run through a third protein. Some results given as binding are weak or reduced against the parent protein; the word gives no strength.

The chains behind the UniProt entries cited, without tags or fusion partners.
UniProt Q9UDY8: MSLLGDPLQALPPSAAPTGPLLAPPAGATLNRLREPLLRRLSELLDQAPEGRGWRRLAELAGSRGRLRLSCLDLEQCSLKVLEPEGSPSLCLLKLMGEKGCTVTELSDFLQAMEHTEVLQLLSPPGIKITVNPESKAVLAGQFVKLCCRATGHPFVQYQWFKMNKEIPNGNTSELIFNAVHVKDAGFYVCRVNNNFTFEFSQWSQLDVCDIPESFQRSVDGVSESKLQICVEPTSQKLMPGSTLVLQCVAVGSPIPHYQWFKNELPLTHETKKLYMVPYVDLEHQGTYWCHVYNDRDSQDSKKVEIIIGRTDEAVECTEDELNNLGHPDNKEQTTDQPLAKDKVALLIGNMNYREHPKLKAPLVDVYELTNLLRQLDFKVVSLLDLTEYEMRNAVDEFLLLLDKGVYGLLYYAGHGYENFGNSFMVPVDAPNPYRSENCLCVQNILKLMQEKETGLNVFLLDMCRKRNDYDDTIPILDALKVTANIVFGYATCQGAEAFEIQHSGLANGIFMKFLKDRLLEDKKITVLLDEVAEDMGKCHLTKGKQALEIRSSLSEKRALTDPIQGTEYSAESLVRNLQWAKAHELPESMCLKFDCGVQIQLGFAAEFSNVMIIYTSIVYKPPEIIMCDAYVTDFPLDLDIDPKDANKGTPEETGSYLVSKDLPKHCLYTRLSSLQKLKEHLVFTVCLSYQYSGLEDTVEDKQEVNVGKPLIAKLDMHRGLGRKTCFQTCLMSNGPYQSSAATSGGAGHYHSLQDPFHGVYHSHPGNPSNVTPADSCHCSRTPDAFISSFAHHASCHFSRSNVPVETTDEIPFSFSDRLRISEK

T1: IKKα (human (endogenous in platelets)) (UniProt O15111)
T1 sequence: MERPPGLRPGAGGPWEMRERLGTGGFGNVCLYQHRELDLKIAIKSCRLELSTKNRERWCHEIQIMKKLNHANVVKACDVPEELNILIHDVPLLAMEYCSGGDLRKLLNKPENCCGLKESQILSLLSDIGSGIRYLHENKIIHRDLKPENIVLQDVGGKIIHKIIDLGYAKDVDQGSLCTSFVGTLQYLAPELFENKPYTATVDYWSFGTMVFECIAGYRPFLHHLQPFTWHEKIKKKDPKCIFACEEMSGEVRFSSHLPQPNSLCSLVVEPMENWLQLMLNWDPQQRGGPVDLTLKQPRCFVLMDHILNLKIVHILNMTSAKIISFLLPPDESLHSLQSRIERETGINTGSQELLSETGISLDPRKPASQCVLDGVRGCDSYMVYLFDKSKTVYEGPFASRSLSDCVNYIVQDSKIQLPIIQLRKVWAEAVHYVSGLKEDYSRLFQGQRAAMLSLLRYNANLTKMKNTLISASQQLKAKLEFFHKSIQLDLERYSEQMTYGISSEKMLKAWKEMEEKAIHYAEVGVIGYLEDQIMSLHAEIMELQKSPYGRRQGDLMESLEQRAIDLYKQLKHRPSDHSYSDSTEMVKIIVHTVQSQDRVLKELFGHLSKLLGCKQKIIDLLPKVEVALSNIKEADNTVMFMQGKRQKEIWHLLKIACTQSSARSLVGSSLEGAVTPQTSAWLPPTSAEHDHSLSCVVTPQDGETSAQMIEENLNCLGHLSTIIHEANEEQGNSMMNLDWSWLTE


Experiments:
[1] = molecular target: MALT1 (human (endogenous in platelets)) (UniProt Q9UDY8); assay: co-IP; as a1, but unstimulated platelets; precipitated with anti-MALT1; immunoblot
[2] = molecular target: MALT1 (human (endogenous in platelets)) (UniProt Q9UDY8); assay: co-IP; endogenous proteins; washed human platelets stimulated with thrombin (0.025 U/mL, 3 min), lysed, precleared with rabbit IgG and Protein A-Sepharose; precipitated with antibody to the bait (anti-MALT1, anti-IKKα or anti-syntaxin-11) and Protein A-Sepharose; SDS-PAGE and immunoblot
[3] = molecular target: T1, IKKα (human (endogenous in platelets)); assay: as above
[4] = molecular target: T1, IKKα (human (endogenous in platelets)); assay: condition: only platelets pretreated with MG132 (10 μM) before thrombin; co-IP; as a1, but platelets pretreated with the proteasome inhibitor MG132 (10 μM, 3 min) before thrombin (0.025 U/mL, 3 min); precipitated with anti-MALT1, anti-IKKα or anti-syntaxin-11; immunoblot

binding [2] | binding [3] | binding [4] | Binder | binding [1]
binds |  |  | CARMA1 (protein, UniProt Q9BXL7 1-1154) MPGGGPEMDDYMETLKDEEDALWENVECNRHMLSRYINPAKLTPYLRQCKVIDEQDEDEVLNAPMLPSKINRAGRLLDILHTKGQRGYVVFLESLEFYYPELYKLVTGKEPTRRFSTIVVEEGHEGLTHFLMNEVIKLQQQMKAKDLQRCELLARLRQLEDEKKQMTLTRVELLTFQERYYKMKEERDSYNDELVKVKDDNYNLAMRYAQLSEEKNMAVMRSRDLQLEIDQLKHRLNKMEEECKLERNQSLKLKNDIENRPKKEQVLELERENEMLKTKNQELQSIIQAGKRSLPDSDKAILDILEHDRKEALEDRQELVNRIYNLQEEARQAEELRDKYLEEKEDLELKCSTLGKDCEMYKHRMNTVMLQLEEVERERDQAFHSRDEAQTQYSQCLIEKDKYRKQIRELEEKNDEMRIEMVRREACIVNLESKLRRLSKDSNNLDQSLPRNLPVTIISQDFGDASPRTNGQEADDSSTSEESPEDSKYFLPYHPPQRRMNLKGIQLQRAKSPISLKRTSDFQAKGHEEEGTDASPSSCGSLPITNSFTKMQPPRSRSSIMSITAEPPGNDSIVRRYKEDAPHRSTVEEDNDSGGFDALDLDDDSHERYSFGPSSIHSSSSSHQSEGLDAYDLEQVNLMFRKFSLERPFRPSVTSVGHVRGPGPSVQHTTLNGDSLTSQLTLLGGNARGSFVHSVKPGSLAEKAGLREGHQLLLLEGCIRGERQSVPLDTCTKEEAHWTIQRCSGPVTLHYKVNHEGYRKLVKDMEDGLITSGDSFYIRLNLNISSQLDACTMSLKCDDVVHVRDTMYQDRHEWLCARVDPFTDHDLDMGTIPSYSRAQQLLLVKLQRLMHRGSREEVDGTHHTLRALRNTLQPEEALSTSDPRVSPRLSRASFLFGQLLQFVSRSENKYKRMNSNERVRIISGSPLGSLARSSLDATKLLTEKQEELDPESELGKNLSLIPYSLVRAFYCERRRPVLFTPTVLAKTLVQRLLNSGGAMEFTICKSDIVTRDEFLRRQKTETIIYSREKNPNAFECIAPANIEAVAAKNKHCLLEAGIGCTRDLIKSNIYPIVLFIRVCEKNIKRFRKLLPRPETEEEFLRVCRLKEKELEALPCLYATVEPDMWGSVEELLRVVKDKIGEEQRKTIWVDEDQL | no binding (condition: unstimulated platelets)
 | binds | no binding | IKKβ (protein, UniProt O14920 1-756) MSWSPSLTTQTCGAWEMKERLGTGGFGNVIRWHNQETGEQIAIKQCRQELSPRNRERWCLEIQIMRRLTHPNVVAARDVPEGMQNLAPNDLPLLAMEYCQGGDLRKYLNQFENCCGLREGAILTLLSDIASALRYLHENRIIHRDLKPENIVLQQGEQRLIHKIIDLGYAKELDQGSLCTSFVGTLQYLAPELLEQQKYTVTVDYWSFGTLAFECITGFRPFLPNWQPVQWHSKVRQKSEVDIVVSEDLNGTVKFSSSLPYPNNLNSVLAERLEKWLQLMLMWHPRQRGTDPTYGPNGCFKALDDILNLKLVHILNMVTGTIHTYPVTEDESLQSLKARIQQDTGIPEEDQELLQEAGLALIPDKPATQCISDGKLNEGHTLDMDLVFLFDNSKITYETQISPRPQPESVSCILQEPKRNLAFFQLRKVWGQVWHSIQTLKEDCNRLQQGQRAAMMNLLRNNSCLSKMKNSMASMSQQLKAKLDFFKTSIQIDLEKYSEQTEFGITSDKLLLAWREMEQAVELCGRENEVKLLVERMMALQTDIVDLQRSPMGRKQGGTLDDLEEQARELYRRLREKPRDQRTEGDSQEMVRLLLQAIQSFEKKVRVIYTQLSKTVVCKQKALELLPKVEEVVSLMNEDEKTVVRLQEKRQKELWNLLKIACSKVRGPVSGSPDSMNASRLSQPGQLMSQPSTASNSLPEPAKKSEELVAEAHNLCTLLENAIQDTVREQDQSFTALDWSWLQTEEEEHSCLEQAS | 
binds |  |  | Bcl10 (protein, UniProt O95999 1-233) MEPTAPSLTEEDLTEVKKDALENLRVYLCEKIIAERHFDHLRAKKILSREDTEEISCRTSSRKRAGKLLDYLQENPKGLDTLVESIRREKTQNFLIQKITDEVLKLRNIKLEHLKGLKCSSCEPFPDGATNNLSRSNSDESNFSEKLRASTVMYHPEGESSTTPFFSTNSSLNLPVLEVGRTENTIFSSTTLPRPGDPGAPPLPPDLQLEEEGTCANSSEMFLPLRSRTVSRQ | no binding (condition: unstimulated platelets)
